# Hit rate of the full screen: of about 350,000 compounds, about 700 (0.2%) were called active. The inconclusive results got no clear call from the source; some entries with a clear call stand among them for comparison. The call rests on the fitted dose curve; in most records, active means well fitted inhibition curve with a large enough effect; inconclusive means small, poorly fitted or top-dose-only effect; inactive means flat fitted curve, though single readings scatter. No potency is given beside an inconclusive call; the fits are too rough. Numbered stars: 1 amine (or outer) side, 2 acyl side, 3 side chain; on linkers, the order of the positions; unused ones are H or OH. Bridge positions count the residues as written; N and C are the ends. Square brackets hold non-standard residues; d marks the D form. Peptide text beside a SMILES is read from it. I, II: the chains in the order shown. Actinocin(9to1) = Cc1c2oc3c(C)ccc(C(=O)[*:1])c3nc-2c(C(=O)[*:2])c(N)c1=O; NMeV = CN[C@H](C(=O)O)C(C)C; Sar = CNCC(=O)O
# Target: RecQ-like DNA helicase BLM (Homo sapiens) (UniProt P54132)
# Sequence of UniProt P54132 (P54132 whole entry, looked up): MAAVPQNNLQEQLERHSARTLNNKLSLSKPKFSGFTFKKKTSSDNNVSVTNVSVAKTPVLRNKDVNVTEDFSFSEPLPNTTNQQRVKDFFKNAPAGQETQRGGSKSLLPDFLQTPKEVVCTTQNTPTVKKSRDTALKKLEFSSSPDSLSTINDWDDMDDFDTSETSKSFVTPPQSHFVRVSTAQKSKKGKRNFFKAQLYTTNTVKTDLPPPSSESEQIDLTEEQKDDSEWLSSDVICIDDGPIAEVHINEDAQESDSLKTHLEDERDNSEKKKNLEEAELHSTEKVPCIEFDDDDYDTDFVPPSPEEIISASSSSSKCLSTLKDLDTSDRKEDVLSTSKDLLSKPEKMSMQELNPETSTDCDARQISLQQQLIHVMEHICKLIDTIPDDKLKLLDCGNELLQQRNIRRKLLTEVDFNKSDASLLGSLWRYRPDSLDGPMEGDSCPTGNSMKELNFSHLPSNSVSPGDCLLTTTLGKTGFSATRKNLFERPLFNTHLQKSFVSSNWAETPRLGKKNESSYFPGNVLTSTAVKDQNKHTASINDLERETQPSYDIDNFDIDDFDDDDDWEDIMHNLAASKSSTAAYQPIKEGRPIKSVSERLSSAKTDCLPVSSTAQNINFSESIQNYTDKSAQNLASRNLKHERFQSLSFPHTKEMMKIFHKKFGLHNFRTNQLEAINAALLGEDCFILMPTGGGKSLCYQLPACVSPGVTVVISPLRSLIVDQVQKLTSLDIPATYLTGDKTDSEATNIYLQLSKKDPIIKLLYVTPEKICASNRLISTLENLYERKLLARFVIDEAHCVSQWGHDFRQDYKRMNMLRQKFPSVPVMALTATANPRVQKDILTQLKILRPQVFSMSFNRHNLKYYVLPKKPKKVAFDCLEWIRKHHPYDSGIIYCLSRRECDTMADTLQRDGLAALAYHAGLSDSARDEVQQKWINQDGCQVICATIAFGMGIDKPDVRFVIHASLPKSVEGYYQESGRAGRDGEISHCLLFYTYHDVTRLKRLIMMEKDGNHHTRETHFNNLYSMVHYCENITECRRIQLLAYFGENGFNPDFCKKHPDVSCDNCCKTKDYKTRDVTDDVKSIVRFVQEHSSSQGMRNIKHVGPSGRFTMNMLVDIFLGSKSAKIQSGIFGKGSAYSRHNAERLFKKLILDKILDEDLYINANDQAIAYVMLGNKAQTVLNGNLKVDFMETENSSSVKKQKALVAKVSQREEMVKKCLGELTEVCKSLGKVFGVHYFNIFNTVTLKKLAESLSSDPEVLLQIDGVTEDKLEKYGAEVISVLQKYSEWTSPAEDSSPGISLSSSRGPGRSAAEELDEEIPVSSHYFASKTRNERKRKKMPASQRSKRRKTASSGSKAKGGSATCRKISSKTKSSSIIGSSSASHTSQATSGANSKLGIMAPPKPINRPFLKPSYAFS
# Assay: qHTS Assay for Inhibitors of Bloom's syndrome helicase (BLM); further: nearly all actives have a fitted effect of over 35% in size;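 on activity change, negative = inhibition: plate controls were vehicle for no effect and no enzyme for full effect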
# Conditions: recombinant BLM DNA unwinding, fluorescence dequenching; series mostly up to 56.1 µM; activity change, negative = inhibition: at the top concentration
# Potency means the concentration at half of the fitted maximal effect; tags describe the fitted curve by direction and shape.
Structure (SMILES),"activity change, negative = inhibition",Potency
Cc1ccc[n+](CC(=O)Nc2c(Cl)cc(Cl)cc2Cl)c1,inactive: -0.896%,–
O=C(C[n+]1ccccc1)c1ccc(NC(=O)c2ccccc2)cc1,inactive: -4.07%,–
C=CCOc1ccc(C(=O)n2cc(C(=O)OC)c3ccccc32)cc1,–,"inconclusive [inhibitor, partial curve]"
CCOC(=O)CN(C(=O)c1snc(C(N)=O)c1N)C(C(=O)NC1CCCCC1)c1ccc(F)cc1 (configuration not stated),–,"inconclusive [inhibitor, single point]"
COc1ccc(S(=O)(=O)Nc2ccc(-n3cccc3)cc2)cc1,–,"inconclusive [inhibitor, partial curve]"
CC(C)Sc1oc(-c2ccco2)nc1S(=O)(=O)c1ccc(F)cc1,–,"inconclusive [inhibitor, single point]"
O=C1Nc2ccc(I)cc2/C1=C/c1cc(Br)c(O)c(Br)c1,–,"inconclusive [inhibitor, single point]"
Cc1cc2cc(CNC(=O)c3ccco3)ccc2n1C,–,"inconclusive [inhibitor, single point]"
Nc1cc2nn(-c3ccccc3)nc2cc1Cl,–,"inconclusive [inhibitor, partial curve]"
CSc1nc(N2CCN(CCO)CC2)c2sc3nc(-c4ccco4)c4c(c3c2n1)CCC4,–,active: 12.6 µM
COc1cc(/C=N/Nc2nn3cnnc3c3ccccc23)ccc1O,–,"inconclusive [inhibitor, single point]"
CCN(CC)c1ccc(/C=C(\C#N)C(=O)c2ccc(Br)cc2)cc1,–,"inconclusive [inhibitor, single point]"
O=c1c(O)c(Br)ccc2c(Br)c(O)c(O)c(O)c12,–,"inconclusive [inhibitor, single point]"
CC(NC(=O)Nc1ccc(O)cc1)(C(F)(F)F)C(F)(F)F,inactive: -23.7%,–
COc1ccc2c(c1)c(=O)oc1c(C)c(OCc3cc(C(=O)O)oc3C)ccc12,inactive: 1.45%,–
Nc1nc(CN2CCCCCC2)nc(Nc2ccc(F)cc2)n1,–,"inconclusive [inhibitor, single point]"
NC(=O)N1c2ccccc2CC(=O)c2ccccc21,–,"inconclusive [inhibitor, single point]"
COc1ccccc1NC(=O)c1sc(-c2ccc(Cl)cc2)cc1N,inactive: -3.88%,–
Nc1ccc2c(c1)C/C(=C/c1ccco1)C2=O,–,"inconclusive [inhibitor, partial curve]"
O=C(O)C1Nc2c(Cl)cc(Cl)cc2C2C=CCC12 (configuration not stated),–,"inconclusive [inhibitor, partial curve]"
CC(C)(CS(=O)(=O)[O-])NC(=O)CC[N+](C)(C)CCO,–,active: 14.1 µM
Cc1ncc(CO)c(/C=N/NC(=O)c2cc(O)c(O)c(O)c2)c1O,–,active: 5.62 µM
Cc1c2c(=O)n(-c3nc4ccccc4s3)nc-2cc(O)n1Cc1ccccc1,–,active: 15.8 µM
CCn1c(C)[n+](Cc2ccccc2)c2ccc(Cl)cc21,inactive: 0.145%,–
Cc1ccc(S(=O)(=O)/N=C2/C=C(Sc3ncn[nH]3)C(=O)c3ccccc32)c(C)c1,–,active: 28.2 µM
CN1c2ccccc2C(C)(C)C12C=Nc1c(cc(N3CCOCC3)c3ccccc13)O2 (configuration not stated),–,"inconclusive [inhibitor, single point]"

Structure (SMILES),"activity change, negative = inhibition",Potency
CN1CCN(c2nc(Nc3ccc(F)cc3)nc(Nc3ccc(F)cc3)n2)CC1,–,"inconclusive [inhibitor, single point]"
COc1ccc2c(c1)cc(C(=O)N/N=C/c1c(O)c(C(=O)O)cc3ccccc13)n2C,–,"inconclusive [inhibitor, single point]"
O=C(Cn1nnc(-c2cc(C(F)(F)F)cc(C(F)(F)F)c2)n1)NNC(=S)Nc1ccc(Cl)cc1,–,active: 17.8 µM
COc1cc(CNc2ccc(N3CCCC3)cc2)cc(Cl)c1OC,inactive: -1.53%,–
Cc1[nH][nH]c(=O)c1C(c1ccc(-c2cccc(Cl)c2)o1)c1c(C)[nH][nH]c1=O,–,"inconclusive [inhibitor, single point]"
CN=C(c1ccco1)n1c(=S)nc(-c2ccco2)n(C)c1=S,inactive: -10.2%,–
"Cc1c2oc3c(C)ccc(C(=O)N[C@@H]4C(=O)N[C@H](C(C)C)C(=O)N5CCC[C@H]5C(=O)N(C)CC(=O)N(C)[C@@H](C(C)C)C(=O)O[C@@H]4C)c3nc-2c(C(=O)N[C@@H]2C(=O)N[C@H](C(C)C)C(=O)N3CCC[C@H]3C(=O)N(C)CC(=O)N(C)[C@@H](C(C)C)C(=O)O[C@@H]2C)c(N)c1=O (I: T[dV]P[Sar][NMeV] / II: T[dV]P[Sar][NMeV]; ester I:1-I:C, II:1-II:C; linker I:N-II:N via Actinocin(9to1))",–,"inconclusive [inhibitor, partial curve]"
O=C1C(O)=C(O)C(=O)C(O)=C1O,–,"inconclusive [inhibitor, single point]"
C#CCOCCOCCOCCNc1nc(N2CCN(C(=O)[C@H](CCCCN)n3cc([C@@H](N)CC(C)C)nn3)CC2)nc(N2CCN(C(=O)[C@H](Cc3cc4ccccc4[nH]3)n3cc([C@@H](N)Cc4ccc(O)cc4)nn3)CC2)n1,–,"inconclusive [inhibitor, single point]"
CCNc1nc(Oc2ccc(OC)cc2)cc(C(F)(F)F)n1,–,"inconclusive [inhibitor, partial curve]"
O=C(COc1ccc(Cl)cc1Cl)Nc1ccc(C(=O)Nc2ccccc2C(=O)O)cc1,–,"inconclusive [inhibitor, single point]"
CCC(CO)n1c(SCc2cc([N+](=O)[O-])cc3c2OCOC3)nc2ccccc2c1=O (configuration not stated),inactive: -8.89%,–
O=C(O)c1ccc(N2N=C(c3ccccc3)CC2c2ccccc2)cc1 (configuration not stated),inactive: 0.258%,–
O=C(Nc1ccc(Cl)cc1)C1CCC(CNS(=O)(=O)c2ccc(Br)s2)CC1 (configuration not stated),inactive: -4.93%,–
C=CCOC(=O)c1cc(-c2ccc(/C=C3\C(=O)NC(=O)C(C#N)=C3C)o2)ccc1Cl,–,"inconclusive [inhibitor, single point]"
Cc1cc(C)c2nc(C)cc(N/N=C/c3ccc(O)cc3)c2c1,–,active: 31.6 µM
C#CCOCCOCCOCCNc1nc(N2CCN(C(=O)[C@H](Cc3ccc(O)cc3)n3cc([C@@H](N)C(C)CC)nn3)CC2)nc(N2CCN(C(=O)[C@H](Cc3cc4ccccc4[nH]3)n3cc([C@@H](N)Cc4ccc(O)cc4)nn3)CC2)n1 (some centres not stated),–,"inconclusive [inhibitor, single point]"
CC/C=C\C/C=C\C/C=C\CCCCCCCC(=O)O,–,"inconclusive [inhibitor, single point]"
Cc1c(C(=O)NCc2cccc(Br)c2)oc2ccc3c(c12)C(=O)CC(C)(C)O3,inactive: -11.9%,–
N=c1n(CC(=O)c2ccc(Br)s2)c2ccccc2n1Cc1ccccc1,–,"inconclusive [inhibitor, single point]"
CCOC(=O)c1c(NC(=S)N2CCCCC2)sc2c1CCN(C(=O)OCC)C2,–,"inconclusive [inhibitor, single point]"
O=C(O)CN1C(=O)/C(=C\c2cc(Br)ccc2OCc2ccc([N+](=O)[O-])cc2)SC1=S,–,"inconclusive [inhibitor, single point]"
COc1ccc(OC)c(-c2c3cc(O)c(=O)cc-3oc3cc(O)c(O)cc23)c1,–,active: 28.2 µM
COc1ccc(Br)cc1CNc1ccc(O)cc1,–,active: 20 µM
Cn1c(=O)c(NCCc2ccccc2)c2c3c(cccc31)C(=O)c1ccccc1-2,–,"inconclusive [inhibitor, single point]"
COc1ccc(-c2nnc(Nc3ccc(S(=O)(=O)Nc4nccs4)cc3)c3ccccc23)cc1,–,"inconclusive [inhibitor, full curve, poor fit]"

Structure (SMILES),"activity change, negative = inhibition",Potency
CCN1CCS/C1=C/C=C/C1=[N+](CC)CCS1,inactive: -2.11%,–
Cc1noc(C)c1S(=O)(=O)N(CC(=O)NCCc1ccc(Cl)cc1)c1ccc(C(C)C)cc1,inactive: -1.2%,–
COc1cc2c(cc1O)CCN[C@@]21CS[C@H]2c3c(OC(C)=O)c(C)c4c(c3C(COC1=O)N1C2C2c3c(cc(C)c(OC)c3O)CC([C@@H]1O)N2C)OCO4 (some centres not stated),–,active: 10 µM
CCOc1cc(CNC(=O)Cn2ncn3c(cc4cc(F)ccc43)c2=O)cc(OCC)c1OCC,inactive: -1.78%,–
COc1ccc2c(c1)-c1nc(/N=C/c3cccc(OC)c3O)sc1CC2,–,"inconclusive [inhibitor, partial curve]"
Nc1ccc(-c2nc3c(Cl)cc(N)cc3[nH]2)cc1,–,"inconclusive [inhibitor, single point]"
C=Cc1c(C)/c2[n-]/c1=C\c1[n-]c(c(CC)c1C)/C=c1\[n-]c3c(c1C)C(=O)C(C(=O)[O-])C=3c1[n-]c(c(C)c1CCC(=O)[O-])\C=2.[Cu].[Na+].[Na+] (configuration not stated),–,active: 11.2 µM
CCOC(=O)C1CCN(C(=O)c2ccc3c(c2)sc2nc(-c4ccc(OC)cc4)cn23)CC1,inactive: -2.84%,–
C=CCc1cccc2cc(C(=O)Nc3ccc(S(=O)(=O)Nc4nnc(CC)s4)cc3)c(=O)oc12,–,"inconclusive [inhibitor, single point]"
CCCOC(=O)NCCCN(C)C,inactive: -1.37%,–
NS(=O)(=O)c1ccc(N/N=C/c2ccc(O)c(O)c2O)c([N+](=O)[O-])c1,–,active: 15.8 µM
Cc1cc2nc(-c3ccc(SCc4ccc(C(=O)O)cc4)nc3)[nH]c2cc1C,–,"inconclusive [inhibitor, single point]"
Cc1ccc(/C=C/C(=O)Nc2ncc(C)s2)o1,–,"inconclusive [inhibitor, partial curve]"
Nc1ncnc2c1c(I)cn2C1OC(CO)C(O)C1O (configuration not stated),inactive: 4.65%,–
O=C1COc2ccc(C(=O)COC(=O)c3ccc4ccccc4n3)cc2N1,–,"inconclusive [inhibitor, partial curve]"
CN1/C(=C/c2cc[n+](C)c3ccccc23)C=Cc2ccccc21,–,"inconclusive [inhibitor, single point]"
CC[n+]1c(/C=C/c2c[nH]c3ccccc23)ccc2cc(C)ccc21,–,"inconclusive [inhibitor, single point]"
S=c1[nH]nc(-c2ccncc2)n1/N=C/C=C/c1ccco1,–,"inconclusive [inhibitor, single point]"
O=S(=O)(O)c1cccc2c(N=Nc3ccc(O)c4ncccc34)cccc12,–,"inconclusive [inhibitor, single point]"
Cc1c(C(=O)OCC2CCCO2)[nH]c2c1C(=O)CC(c1ccco1)C2 (configuration not stated),–,active: 14.1 µM
COc1ccc2c(c1)c1nnc(SCC(=O)Nc3ccccc3F)nc1n2C,–,"inconclusive [inhibitor, single point]"
COc1ccc(OC)c(Nc2nc(NCCCN(C)C)nc(N)c2[N+](=O)[O-])c1,–,"inconclusive [inhibitor, single point]"
Cc1ccc(C)n1/N=C1/NC(=O)CS1,–,"inconclusive [inhibitor, single point]"
Nc1ccc2nc3c(=O)[nH]c(=S)[nH]c3nc2c1,–,active: 2.82 µM
Nc1nc(COc2ccccc2C=O)nc(Nc2ccccc2)n1,–,"inconclusive [inhibitor, single point]"

# From PubChem BioAssay AID2528 (National Center for Advancing Translational Sciences (NCATS), 2010)
